For this test, the system named is Friend leukemia virus. The class given is in vivo, NMRI mice, female. The conditions noted are these: for Relative weight of the spleen: day 14 (dosage unit not given). As for the experimental part:
A test for activity of chemotherapeutics for HIV infections in man causes difficulties, since no infection model in laboratory animals yet exists. Infection with other retroviruses therefore has to be resorted to for testing chemotherapeutics. […] In the untreated control animals, a distinct enlargement of the spleen and liver developed as a symptom of the infection in the course of 2 weeks. Treatment was carried out over 10 days, starting 48 hours after the infection. On the 14th day of the experiment, the animals were sacrificed and dissected. The spleen was removed and weighed. As a measurement parameter of the therapeutic activity, the weight of the spleen of the treated animals was related to that of the untreated infection control.
In the case of uninfected adult laboratory mice (20-24 g body weight), the spleen weighed about 1% of the body weight or less, while in the case of infected animals, the spleen attained about 10% of the body weight at the end of the experiment.
The treatment was started 40 h after infection. The substances indicated were administered orally or intraperitoneally once a day. 14 days after infection, the animals were sacrificed by dislocation and the spleens were removed. The weight of the spleens was determined. As a measurement parameter of the therapeutic activity, the weight of the spleen of the animals which had been treated with compounds A and D was related to that of the untreated infection control.
Suramin and azidothymidine (AZT) were used as standard substances.

[1] abbreviates: ip, 50, once a day over 10 days (dosage unit not given).
Setting [2] is: ip, 50, once a day over 10 days.

Where two headings read alike, the source gives them in different places.

Regarding `CCOP(=O)(Cc1ccccc1C=NNC(N)=S)OCC` [D, Diethyl 2-formylbenzylphosphonate thiosemicarbazone], the Survival rate under setting [1] came to 100%. Also, the “Relative weight of the spleen” value under setting [2] is 7.60 % of body weight.
For the compound `CCOP(=O)(Cc1ccccc1C=O)OCC` [A, diethyl 2-formylbenzylphosphonate], the Survival rate (ip, 25, once a day over 10 days (dosage unit not given)) is given as 90%; the Survival rate under setting [1] was 100%; the Survival rate (po, 17.5, once a day over 10 days (dosage unit not given)) was found to be 100%; the Survival rate (po, 81, once a day over 10 days (dosage unit not given)) came out at 100%. Besides, the “Relative weight of the spleen” value runs as follows: (ip, 25, once a day over 10 days) 6.27 % of body weight; under setting [2], 6.52 % of body weight; (po, 17.5, once a day over 10 days) 7.74 % of body weight; (po, 81, once a day over 10 days) 5.67 % of body weight.
Compound `Cc1ccc(C(=O)Nc2ccc(S(=O)(=O)O)c3cc(S(=O)(=O)O)cc(S(=O)(=O)O)c23)cc1NC(=O)c1cccc(NC(=O)Nc2cccc(C(=O)Nc3cc(C(=O)Nc4ccc(S(=O)(=O)O)c5cc(S(=O)(=O)O)cc(S(=O)(=O)O)c45)ccc3C)c2)c1` [Suramin, reference compound] gave a Survival rate under setting [1] of 70%. The “Relative weight of the spleen” value under setting [2] was 6.06 % of body weight.
Take `Cc1cn([C@H]2C[C@H](N=[N+]=[N-])[C@@H](CO)O2)c(=O)[nH]c1=O` [AZT, azidothymidine, reference compound]: the Survival rate under setting [1] was found to be 100% and the Survival rate (po, 15.5, once a day over 10 days (dosage unit not given)) amounted to 100%. The “Relative weight of the spleen” value runs as follows: under setting [2], 7.60 % of body weight; (po, 15.5, once a day over 10 days) 3.26 % of body weight.
